Test results reported in article PMC4336329 (PLoS ONE, 2015).
Screen size: about 310,000 compounds; about 2,200 (0.71%) showed an effect of 50% or more. Effects have a minus sign here. Some of the results follow.

Each molecule was assayed against human ether-à-go-go-related gene (hERG) potassium channel (human, UniProt Q12809) (assay: primary screen, population patch clamp on CHO cells stably expressing hERG).
human ether-à-go-go-related gene (hERG) potassium channel, sequence (Q12809 whole entry, looked up): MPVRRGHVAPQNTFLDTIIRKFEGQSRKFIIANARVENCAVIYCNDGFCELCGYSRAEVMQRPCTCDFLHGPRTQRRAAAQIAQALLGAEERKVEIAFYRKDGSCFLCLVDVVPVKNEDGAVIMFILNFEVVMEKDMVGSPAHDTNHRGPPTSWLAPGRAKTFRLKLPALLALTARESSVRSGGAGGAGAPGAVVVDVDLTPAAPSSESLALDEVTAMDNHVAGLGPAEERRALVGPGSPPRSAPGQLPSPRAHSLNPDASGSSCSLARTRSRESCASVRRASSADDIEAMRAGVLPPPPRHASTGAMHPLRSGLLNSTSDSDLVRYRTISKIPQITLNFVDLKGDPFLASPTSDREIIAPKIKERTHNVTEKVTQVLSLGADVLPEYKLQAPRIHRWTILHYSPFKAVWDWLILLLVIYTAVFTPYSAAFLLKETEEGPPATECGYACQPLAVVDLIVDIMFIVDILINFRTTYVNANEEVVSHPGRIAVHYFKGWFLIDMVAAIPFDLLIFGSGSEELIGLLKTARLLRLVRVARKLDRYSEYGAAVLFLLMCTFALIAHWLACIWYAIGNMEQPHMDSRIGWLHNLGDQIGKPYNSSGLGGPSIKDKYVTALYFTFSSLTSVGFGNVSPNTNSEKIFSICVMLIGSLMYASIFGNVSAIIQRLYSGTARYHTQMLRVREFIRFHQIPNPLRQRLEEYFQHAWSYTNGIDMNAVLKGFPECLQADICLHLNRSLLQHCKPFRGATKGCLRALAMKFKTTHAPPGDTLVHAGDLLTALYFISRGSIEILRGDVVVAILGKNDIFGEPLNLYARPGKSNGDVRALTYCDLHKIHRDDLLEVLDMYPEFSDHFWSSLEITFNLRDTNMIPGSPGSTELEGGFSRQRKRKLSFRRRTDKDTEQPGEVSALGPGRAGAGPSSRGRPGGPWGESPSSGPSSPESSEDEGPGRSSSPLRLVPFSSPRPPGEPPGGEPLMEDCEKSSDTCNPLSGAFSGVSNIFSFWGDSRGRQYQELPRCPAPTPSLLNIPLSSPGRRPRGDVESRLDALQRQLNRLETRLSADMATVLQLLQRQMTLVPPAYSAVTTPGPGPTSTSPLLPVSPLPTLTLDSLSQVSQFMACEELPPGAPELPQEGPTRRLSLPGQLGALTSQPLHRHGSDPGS

Compound	hERG current change (%, negative = inhibition) at 1uM [%]
COc1ccc(C(=O)C(C)[n+]2ccc(C)c3ccccc32)cc1[N+](=O)[O-].[Br-] (stereo not drawn)	13.5
CN1CCN(c2ccccc2NC(=O)c2ccc(N3CCOCC3)c([N+](=O)[O-])c2)CC1	4.72
CN(C)S(=O)(=O)c1cc(NC(=O)COC(=O)CCSc2ccc(Cl)cc2)ccc1Cl	5.36
CN(C)c1ccc(S(=O)(=O)N2CCCCC2)cc1NC(=O)C1=COCCO1	1.37
Cc1ccc(-n2nc(C)c3c2OC(N)=C(C#N)C3c2ccc(F)cc2)cc1 (stereo not drawn)	16.7
CC(C)c1ccc(S(=O)(=O)N2CCN(C(=O)CCNS(=O)(=O)c3ccccc3F)CC2)cc1	8.57
COc1ccc(-n2c(SCC(=O)Nc3ccccc3)nnc2-c2ccoc2C)cc1	11.7
CCN(CC)C(=O)CSc1nsc(SCC(=O)N(CC)CC)c1C#N	12.9
COc1ccccc1-n1cnc2cc(NCc3ccco3)ccc21	6.42
COc1ccc(C(=O)COC(=O)Cn2cnc3c2c(=O)n(C)c(=O)n3C)c(OC)c1	13.2
OCC[C@H]1C[C@@H](O)[C@H](O)[C@@]2(CCCO2)O1	12.5
COCCCNC(=O)c1ccccc1-c1cc(C)no1	15.5
Cl.c1csc(CNCCCN2CCOCC2)c1	13.2
CCCCc1cc(=O)oc2cc(OC3CCCCC3=O)ccc12 (stereo not drawn)	22.7
COc1ccc(CNCCc2ccccc2F)c(OC)c1C.O=C(O)C(=O)O	5.79
CC(C)N1CCc2c(sc(NC(=S)NC(=O)c3ccccc3)c2C#N)C1	16.8
O=C(CCC1CCCN(C(=O)c2ccc3c(c2)OCO3)C1)N1CCN(c2ccccn2)CC1 (stereo not drawn)	4.37
N/C(=N\OC(=O)Cc1ccccc1[N+](=O)[O-])c1cccc(Br)c1	3.85
COc1ccc(C2=NOC(C(=O)N3CCCc4ccccc43)C2)cc1 (stereo not drawn)	6.37
CSc1ccc(S(=O)(=O)N2CCC(C(=O)NCc3ccncc3)CC2)cc1	14
Cc1cc(NCc2ccccn2)n2nc(C)c(-c3ccc(Cl)cc3)c2n1	8.52
COc1ccc(/C(O)=C2/C(=O)C(=O)N(CCN3CCOCC3)C2c2cccnc2)cc1OC (stereo not drawn)	4.14

Compound	hERG current change (%, negative = inhibition) at 1uM [%]
Cc1cc(C)n(-c2ccc(NC(=O)C3CCN(Cc4cc(C)c(C)o4)CC3)cc2)n1	-5.31
Clc1cccc(Nc2ncnc3c2cnn3-c2ccccc2)c1	13.9
Cc1ccccc1Cn1nc(C)c(NC(=O)/C=C/c2cnn(C)c2)c1C	14.6
CCCCNC(=O)[C@H]1N2C(=O)c3c(ccc(OC)c3OC)C2SC1(C)C (stereo partly drawn)	18.2
Cc1ccc(OCC(=O)NNC(=O)C2CC(=O)N(c3ccc4c(c3)OCCO4)C2)cc1 (stereo not drawn)	6.24
COc1ccc(/C=N/OC(=O)Nc2ccc(Cl)cc2)c(OC)c1	11.1
O=C(NCc1ccco1)c1nc2c(nnn2Cc2cccc(Cl)c2)c(=O)[nH]1	10.9
CCOc1ccc(Oc2ccc(S(=O)(=O)N3CCOCC3)cc2NC(=O)CCNC(C)=O)cc1	4.54
CCCCn1c(N)c(N(CC(C)C)C(=O)COC(=O)C2(c3ccccc3)CC2)c(=O)[nH]c1=O	17.3
COc1ccc(-n2sc3ccc(F)cc3c2=O)cc1	-0.925
C[C@@H](OC(=O)N(C)Cc1ccccc1)[C@H]1O[C@]2(C)CCCC[C@H]1O2	12.2
CCN1CCN(c2ccc(S(=O)(=O)N3CCOCC3)cc2NC(=O)c2ccc(F)cc2Cl)CC1	-0.421
Cc1ccc(OCc2ccc(C(=O)Nc3cc(C)on3)o2)c([N+](=O)[O-])c1	0.863
CCOc1ncccc1C(=O)Nc1ccc2nc(C)sc2c1	6.88
CCCN1C2CCCC1CC(NC(=O)Nc1cccc(C(C)=O)c1)C2 (stereo not drawn)	2.64
COCCN1CC(CNC(=O)c2cc(COc3ccccc3SC)on2)CC1=O (stereo not drawn)	2.39
COc1ccc(/C=C/C(=O)Nc2ccc(N3CCOCC3)cc2)cc1	13.7
CC12CCC(=O)N1C(C(=O)NNC(=O)c1ccc(Br)cc1)CS2 (stereo not drawn)	4.71
COc1cccc(CCc2nnc(N)s2)c1	13.2
CC(NC(=O)c1ccc(Cl)cc1)C1CC2CCC1C2 (stereo not drawn)	9.41
C/C(CCc1ccco1)=N/NC(=O)CCC(=O)Nc1cccc(Cl)c1	14.2
Cc1ccc(NC(=O)c2cc(S(=O)(=O)N3CCOCC3)cn2C)cc1Cl	16.8

Compound	hERG current change (%, negative = inhibition) at 1uM [%]
CC1=NC(C)(C)Cc2cc(C)c(C)cc21.Cl	5.37
O=C(CN1C(=O)S/C(=C\c2ccccc2Cl)C1=O)NC1C=CS(=O)(=O)C1 (stereo not drawn)	9.49
COc1ccc(N2CCN(C(=O)CSc3nnc4c(C)cc5ccccc5n34)CC2)cc1	23.3
O=C1CCCc2nc(N3CCN(C(c4ccccc4)c4ccccc4)CC3)ncc21	9.18
Cc1ccccc1Sc1ccc([N+](=O)[O-])cn1	9.4
CCc1ccccc1NC(=O)CC(=O)Nc1ccccc1CC	22.2
COc1ccccc1NC(=O)c1oc2ccccc2c1NC(=O)c1cc(OC)c(OC)c(OC)c1	10.9
COc1ccccc1NC(=O)COC(=O)c1ccccc1SCC(=O)N1CCCC1	14.8
CCCCCCCCCCCCCCCC(=O)NCCc1c[nH]c2ccccc12	8.74
COc1ccc(C2C(CN3CCOCC3)C(=O)N2c2ccccc2)cc1 (stereo not drawn)	8.96
O=S(=O)(Nc1ccc(Br)cc1)c1cccc2cccnc12	16.9
O=C(Nc1nc(-c2cc3ccccc3oc2=O)cs1)c1ccc(Br)o1	10.1
O=C(Nc1nc2c(F)cccc2s1)c1ccco1	6.41
CCN1CCN(c2ccc([N+](=O)[O-])cc2C(=O)OC)CC1	-23.7
COC1(OC)N=C(N)C2(C#N)C(c3ccc(F)cc3)C12C#N (stereo not drawn)	-6.77
Oc1ccc(Br)cc1C=Nc1ccc(Cl)cc1	12.4
Cc1ccc[n+](-c2nc([O-])sc2C=O)c1	14.6
O=C(Nc1cccc(F)c1)C1CCN(S(=O)(=O)c2cccc3nonc23)CC1	4.81
CN(C)c1ccc(/C=C(\NC(=O)c2ccccc2)C(=O)NCc2cccnc2)cc1	-0.749
Cc1ccc(-n2c(SCn3nnc4ccccc4c3=O)nnc2-c2cccnc2)c(C)c1	-5.66
Cc1cc(C2(O)C(=O)Nc3ccccc32)ccc1F (stereo not drawn)	14.6
CCCCC(CC)C(=O)Nc1ccccc1C(=O)NC(C)C (stereo not drawn)	10.4

Compound	hERG current change (%, negative = inhibition) at 1uM [%]
NS(=O)(=O)c1ccc(NC(=O)c2ccc(F)cc2F)c(NC(=O)c2ccc(F)cc2F)c1	10.5
O=C(Nc1nc2ccccc2n1CCN1CCCCC1)c1ccco1	-37.4
Clc1ccccc1COc1ccc(/C=N/n2cnnc2)cc1	4.64
CCn1cnc2c1c(=O)n(Cc1cccc([N+](=O)[O-])c1)c(=O)n2Cc1ccccc1	14.4
COc1ccc(C2(C(=O)NCCCN(C)C)CCOCC2)cc1	5.65
Cc1ccc(C(=O)CCC(=O)OCC(=O)N(C)c2c(N)n(Cc3ccccc3)c(=O)[nH]c2=O)cc1	8.67
Cc1ccc2c(c1)nnn2C1CCN(C(=O)C2CCCCC2)CC1	-3.24
Cc1cc(N/N=C/c2ccc(Cl)cc2)nc(NCc2ccccc2)n1	17
CCCC(=O)Nc1nnc(Sc2ccc(N(C)C)cc2)s1	6.01
CC1CCC2(CC1)NC(=O)N(CC(=O)NCc1ccc3c(c1)OCO3)C2=O (stereo not drawn)	10.5
Cn1cccc1-c1cc(C(=O)O)[nH]n1	8.72
Cn1cc(Cl)c(C(=O)OCC(=O)c2ccccc2)n1	17.4
CCCn1nc(C(=O)Nc2nnc(C3CC3)s2)c2ccccc2c1=O	4.88
COc1ccc(N(CC(=O)Nc2cccc(C)c2)S(=O)(=O)c2c(C)noc2C)cc1	14.4
c1coc(CNc2nc3ccccc3s2)c1	12.6
Cc1nc([N+](=O)[O-])c(NCCCO)n1Cc1ccccc1	5.38
Nc1cccc2c(=O)c3ccccc3[nH]c12	13.8
CCN1/C(=C2/SC(=S)N(NC(C)=O)C2=O)Sc2ccc(Cl)cc21	-5.18
CC(C)c1ccc(/C=N/n2nnnc2Nc2ccccc2)cc1	12.1
CC(NCC(=O)Nc1ccccc1C(=O)NC1CC1)c1ccc(S(N)(=O)=O)cc1.O=C(O)C(=O)O (stereo not drawn)	0.622
Cc1ccc(/C=c2\s/c(=C(/C#N)C(=O)N3CCCC3)n(Cc3ccco3)c2=O)s1	-1.02
